In publication PMC9911399, “Two distinct binding modes provide the RNA-binding protein RbFox with extraordinary sequence specificity”:
Residue numbers refer to the chain shown, from its start. The list shows a part of the results.

T1: RBFOX1 RRM (Homo sapiens, UniProt Q9NWB1 109-208)
T1 sequence: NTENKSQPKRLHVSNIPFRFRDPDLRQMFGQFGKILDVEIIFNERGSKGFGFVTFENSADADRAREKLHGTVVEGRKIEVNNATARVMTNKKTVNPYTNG

B1: GGGCCCA (DNA:RNA)
RNA: GGGAGACCGGAAUUCAGAUUGUCCGGGCCCAUUAAAUCCCGUCGUAGCCACCA
DNA 1: CAATCTGAATTCCGGTCTCCC
DNA 2: TGGTGGCTACGACGGGATT
B2: CAGAUUA (DNA:RNA)
RNA: B1 RNA with G25C, G26A, C28A, C29U, C30U
DNA 1: CAATCTGAATTCCGGTCTCCC
DNA 2: TGGTGGCTACGACGGGATT
B3: AGUCCGA (DNA:RNA)
RNA: B1 RNA with G25A, G27U, C30G
DNA 1: CAATCTGAATTCCGGTCTCCC
DNA 2: TGGTGGCTACGACGGGATT
B4: AGAUCUG (DNA:RNA)
RNA: B1 RNA with G25A, G27A, C28U, C30U, A31G
DNA 1: CAATCTGAATTCCGGTCTCCC
DNA 2: TGGTGGCTACGACGGGATT
B5: GUCCUCA (DNA:RNA)
RNA: B1 RNA with G26U, G27C, C29U
DNA 1: CAATCTGAATTCCGGTCTCCC
DNA 2: TGGTGGCTACGACGGGATT
B6: GUGUAAG (DNA:RNA)
RNA: B1 RNA with G26U, C28U, C29A, C30A, A31G
DNA 1: CAATCTGAATTCCGGTCTCCC
DNA 2: TGGTGGCTACGACGGGATT
B7: AACCAUG (DNA:RNA)
RNA: B1 RNA with G25A, G26A, G27C, C29A, C30U, A31G
DNA 1: CAATCTGAATTCCGGTCTCCC
DNA 2: TGGTGGCTACGACGGGATT
B8: GUCUACA (DNA:RNA)
RNA: B1 RNA with G26U, G27C, C28U, C29A
DNA 1: CAATCTGAATTCCGGTCTCCC
DNA 2: TGGTGGCTACGACGGGATT
B9: UAUGAGG (DNA:RNA)
RNA: GGGAGACCGGAAUUCAGAUUGUCCUAUGAGGUUAAAUCCCGUCGUAGCCACCA
DNA 1: CAATCTGAATTCCGGTCTCCC
DNA 2: TGGTGGCTACGACGGGATT
B10: CUUUCUG (DNA:RNA)
RNA: B9 RNA with U25C, A26U, G28U, A29C, G30U
DNA 1: CAATCTGAATTCCGGTCTCCC
DNA 2: TGGTGGCTACGACGGGATT
B11: CAUAACC (DNA:RNA)
RNA: B9 RNA with U25C, G28A, G30C, G31C
DNA 1: CAATCTGAATTCCGGTCTCCC
DNA 2: TGGTGGCTACGACGGGATT
B12: CCAUCUU (DNA:RNA)
RNA: B1 RNA with G25C, G26C, G27A, C28U, C30U, A31U
DNA 1: CAATCTGAATTCCGGTCTCCC
DNA 2: TGGTGGCTACGACGGGATT
B13: CAAAUUC (DNA:RNA)
RNA: B9 RNA with U25C, U27A, G28A, A29U, G30U, G31C
DNA 1: CAATCTGAATTCCGGTCTCCC
DNA 2: TGGTGGCTACGACGGGATT
B14: CAACGCU (DNA:RNA)
RNA: B1 RNA with G25C, G26A, G27A, C29G, A31U
DNA 1: CAATCTGAATTCCGGTCTCCC
DNA 2: TGGTGGCTACGACGGGATT
B15: CGGGACU (DNA:RNA)
RNA: B1 RNA with G25C, C28G, C29A, A31U
DNA 1: CAATCTGAATTCCGGTCTCCC
DNA 2: TGGTGGCTACGACGGGATT
B16: UCCCACU (DNA:RNA)
RNA: B1 RNA with G25U, G26C, G27C, C29A, A31U
DNA 1: CAATCTGAATTCCGGTCTCCC
DNA 2: TGGTGGCTACGACGGGATT
B17: CUGCCAG (DNA:RNA)
RNA: B1 RNA with G25C, G26U, C30A, A31G
DNA 1: CAATCTGAATTCCGGTCTCCC
DNA 2: TGGTGGCTACGACGGGATT
B18: ACCAAAC (DNA:RNA)
RNA: B9 RNA with U25A, A26C, U27C, G28A, G30A, G31C
DNA 1: CAATCTGAATTCCGGTCTCCC
DNA 2: TGGTGGCTACGACGGGATT
B19: GGGCCAA (DNA:RNA)
RNA: B1 RNA with C30A
DNA 1: CAATCTGAATTCCGGTCTCCC
DNA 2: TGGTGGCTACGACGGGATT
B20: UCUAGAG (DNA:RNA)
RNA: B9 RNA with A26C, G28A, A29G, G30A
DNA 1: CAATCTGAATTCCGGTCTCCC
DNA 2: TGGTGGCTACGACGGGATT
B21: CUUCGGU (DNA:RNA)
RNA: B9 RNA with U25C, A26U, G28C, A29G, G31U
DNA 1: CAATCTGAATTCCGGTCTCCC
DNA 2: TGGTGGCTACGACGGGATT
B22: GAUGGCU (DNA:RNA)
RNA: B9 RNA with U25G, A29G, G30C, G31U
DNA 1: CAATCTGAATTCCGGTCTCCC
DNA 2: TGGTGGCTACGACGGGATT
B23: CACUACA (DNA:RNA)
RNA: B1 RNA with G25C, G26A, G27C, C28U, C29A
DNA 1: CAATCTGAATTCCGGTCTCCC
DNA 2: TGGTGGCTACGACGGGATT
B24: CAUCAUU (DNA:RNA)
RNA: B9 RNA with U25C, G28C, G30U, G31U
DNA 1: CAATCTGAATTCCGGTCTCCC
DNA 2: TGGTGGCTACGACGGGATT
B25: CAACAAU (DNA:RNA)
RNA: B9 RNA with U25C, U27A, G28C, G30A, G31U
DNA 1: CAATCTGAATTCCGGTCTCCC
DNA 2: TGGTGGCTACGACGGGATT
B26: GCGGCCU (DNA:RNA)
RNA: B1 RNA with G26C, C28G, A31U
DNA 1: CAATCTGAATTCCGGTCTCCC
DNA 2: TGGTGGCTACGACGGGATT
B27: CGCCCUU (DNA:RNA)
RNA: B1 RNA with G25C, G27C, C30U, A31U
DNA 1: CAATCTGAATTCCGGTCTCCC
DNA 2: TGGTGGCTACGACGGGATT
B28: CUAACGA (DNA:RNA)
RNA: B1 RNA with G25C, G26U, G27A, C28A, C30G
DNA 1: CAATCTGAATTCCGGTCTCCC
DNA 2: TGGTGGCTACGACGGGATT
B29: UUAUCUC (DNA:RNA)
RNA: B1 RNA with G25U, G26U, G27A, C28U, C30U, A31C
DNA 1: CAATCTGAATTCCGGTCTCCC
DNA 2: TGGTGGCTACGACGGGATT
B30: UUUGCGG (DNA:RNA)
RNA: B9 RNA with A26U, A29C
DNA 1: CAATCTGAATTCCGGTCTCCC
DNA 2: TGGTGGCTACGACGGGATT
B31: CGGCGGC (DNA:RNA)
RNA: B1 RNA with G25C, C29G, C30G, A31C
DNA 1: CAATCTGAATTCCGGTCTCCC
DNA 2: TGGTGGCTACGACGGGATT

Molecular target: T1, RBFOX1 RRM
Assay: EMSA; HiTS-Eq, 1 nM pool, 10 min; buffer printed only for the single-RNA assays: 10 mM Tris pH 7.5, 150 mM NaCl, 3.4 mM EDTA, 0.001% NP-40, 30 C
Settings: tags: His6 N-terminal (pET28a); label: 5' 32P
How it was run: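 Relative association constants, normalised to the cognate motif, were derived by comparing read counts of each RNA species with those of the control reaction. The RNA sequenced was the free fraction, separated by 8% native PAGE after a 10 min equilibration in 50 µL of 1 nM 5′-radiolabelled RNA (7 randomized nucleotides) with increasing concentrations of purified wild-type or mutant RbFox RRM.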

Q: For B1, which binding signal is on record?
A: 0.0188 KA relative to UGCAUGU

Q: B2 was tested. Which binding signal did it give?
A: 0.00255 KA relative to UGCAUGU

Q: B3 was tested. Which binding signal did it give?
A: 0.0121 KA relative to UGCAUGU

Q: How did the binding signal turn out when B4 was run?
A: 0.0129 KA relative to UGCAUGU

Q: For B5, which binding signal is on record?
A: 0.00402 KA relative to UGCAUGU

Q: With B6 as the binder, how does the binding signal read?
A: 0.0113 KA relative to UGCAUGU

Q: Which binding signal does the source give for B7 here?
A: 0.00396 KA relative to UGCAUGU

Q: For B8, which binding signal is on record?
A: 0.00434 KA relative to UGCAUGU

Q: How did the binding signal turn out when B9 was run?
A: 0.0088 KA relative to UGCAUGU

Q: B10 was tested. Which binding signal did it give?
A: 0.0195 KA relative to UGCAUGU

Q: How did the binding signal turn out when B11 was run?
A: 0.000335 KA relative to UGCAUGU

Q: With B12 as the binder, how does the binding signal read?
A: 0.00216 KA relative to UGCAUGU

Q: For B13, which binding signal is on record?
A: 0.00405 KA relative to UGCAUGU

Q: For B14, which binding signal is on record?
A: 0.00299 KA relative to UGCAUGU

Q: How did the binding signal turn out when B15 was run?
A: 0.019 KA relative to UGCAUGU

Q: B16 was tested. Which binding signal did it give?
A: 0.0106 KA relative to UGCAUGU

Q: How did the binding signal turn out when B17 was run?
A: 0.0171 KA relative to UGCAUGU

Q: For B18, which binding signal is on record?
A: 0.00153 KA relative to UGCAUGU

Q: For B19, which binding signal is on record?
A: 0.0082 KA relative to UGCAUGU

Q: How did the binding signal turn out when B20 was run?
A: 0.0131 KA relative to UGCAUGU

Q: Which binding signal does the source give for B21 here?
A: 0.013 KA relative to UGCAUGU

Q: With B22 as the binder, how does the binding signal read?
A: 0.0216 KA relative to UGCAUGU

Q: How did the binding signal turn out when B23 was run?
A: 0.00157 KA relative to UGCAUGU

Q: Which binding signal does the source give for B24 here?
A: 0.00301 KA relative to UGCAUGU

Q: For B25, which binding signal is on record?
A: 0.000214 KA relative to UGCAUGU

Q: For B26, which binding signal is on record?
A: 0.0282 KA relative to UGCAUGU

Q: With B27 as the binder, how does the binding signal read?
A: 0.00818 KA relative to UGCAUGU

Q: How did the binding signal turn out when B28 was run?
A: 0.00482 KA relative to UGCAUGU

Q: How did the binding signal turn out when B29 was run?
A: 0.00713 KA relative to UGCAUGU

Q: B30 was tested. Which binding signal did it give?
A: 0.018 KA relative to UGCAUGU

Q: B31 was tested. Which binding signal did it give?
A: 0.0185 KA relative to UGCAUGU
